According to the supplement of paper PMC10369915:
The list shows a part of the results. No stated cut-off is given here; in the data, active = 3.2 or more and inactive = the rest. Only a few entries rise above the background.

Target: SHP2 C-SH2 domain E139D
Test: enrichment score (SH2-bound / input frequency) (ratio); bacterial display of known human phosphotyrosine sites (pTyr-Var adds point mutants) read by sequencing; higher = stronger binding; tyrosines were phosphorylated by kinases first
Details: peptide library: pTyr-Var
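Further: displayed peptides selected on beads carrying the immobilized SH2 domain, with library peptides lacking any tyrosine serving as negative controls.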

Enrichment score, inactive:
EILLSYPRTGY [TGM1_Y365_L366P] 0.955
GEPLSHTRFSL [TFRC_Y20_Y20H] 0.749
VDFQPYRKHKF [TEX37_Y28_YF] 1.25
TDEYEYDELIV [TGM1_Y136] 0.436
HDRNTYEKYLG [TF_Y666] 0.71
AVLALYNSTRD [TGFB1_Y81] 1.16
ETKKQYNSFTY [TMED3_Y85_D86N] 0.78
HEHKGYNANFC [TGFB2_Y341_P338H] 1.67
SSQTIYQRVEG [TFR2_Y23_V22I] 0.805
YRVAGYETQGG [TIA1_Y383] 0.762
SDFSSYARTSI [TERT_Y949_YF] 0.747
KPVEEYANCHL [TF_Y593] 0.995
NKEPRYQEEPP [TJP2_Y479_D482E] 0.549
GYCSWYRGWAP [TIMP3_Y195] 0.802
YQSKHYACIRQ [TIMP3_Y182] 1.84
GSSKIYFLHAD [TLR5_Y108_P112A] 1.08
TDECEYDELIV [TGM1_Y136_Y134C] 0.775
HHTDEYEFDEL [TGM1_Y134_YF] 0.658
VEDHDYEGGIG [TKT_Y564_Y563D] 0.609

Target: SHP2 C-SH2 domain wild-type
Test: as above
Details: peptide library: pTyr-Var

Enrichment score, inactive:
EILLSYPRTGY [TGM1_Y365_L366P] 0.953
GEPLSHTRFSL [TFRC_Y20_Y20H] 0.811
VDFQPYRKHKF [TEX37_Y28_YF] 0.821
TDEYEYDELIV [TGM1_Y136] 0.563
HDRNTYEKYLG [TF_Y666] 0.515
AVLALYNSTRD [TGFB1_Y81] 1.03
ETKKQYNSFTY [TMED3_Y85_D86N] 0.593
HEHKGYNANFC [TGFB2_Y341_P338H] 1.85
SSQTIYQRVEG [TFR2_Y23_V22I] 0.936
YRVAGYETQGG [TIA1_Y383] 0.532
SDFSSYARTSI [TERT_Y949_YF] 0.52
KPVEEYANCHL [TF_Y593] 1.09
NKEPRYQEEPP [TJP2_Y479_D482E] 0.477
GYCSWYRGWAP [TIMP3_Y195] 1.02
YQSKHYACIRQ [TIMP3_Y182] 2.5
GSSKIYFLHAD [TLR5_Y108_P112A] 1.02
TDECEYDELIV [TGM1_Y136_Y134C] 1.13
HHTDEYEFDEL [TGM1_Y134_YF] 0.948
VEDHDYEGGIG [TKT_Y564_Y563D] 0.616

Target: SHP2 N-SH2 domain L43F
Test: as above
Details: peptide library: pTyr-Var

Enrichment score, inactive:
EILLSYPRTGY [TGM1_Y365_L366P] 0.941
GEPLSHTRFSL [TFRC_Y20_Y20H] 0.882
VDFQPYRKHKF [TEX37_Y28_YF] 1.05
TDEYEYDELIV [TGM1_Y136] 0.417
HDRNTYEKYLG [TF_Y666] 0.772
AVLALYNSTRD [TGFB1_Y81] 1.03
ETKKQYNSFTY [TMED3_Y85_D86N] 0.592
HEHKGYNANFC [TGFB2_Y341_P338H] 2.23
SSQTIYQRVEG [TFR2_Y23_V22I] 0.691
YRVAGYETQGG [TIA1_Y383] 0.382
SDFSSYARTSI [TERT_Y949_YF] 0.645
KPVEEYANCHL [TF_Y593] 0.917
NKEPRYQEEPP [TJP2_Y479_D482E] 0.527
GYCSWYRGWAP [TIMP3_Y195] 0.813
YQSKHYACIRQ [TIMP3_Y182] 1.69
GSSKIYFLHAD [TLR5_Y108_P112A] 0.98
HHTDEYEFDEL [TGM1_Y134_YF] 0.787
VEDHDYEGGIG [TKT_Y564_Y563D] 0.579

Target: SHP2 N-SH2 domain T42A
Test: as above
Details: peptide library: pTyr-Var

Enrichment score, inactive:
EILLSYPRTGY [TGM1_Y365_L366P] 0.944
GEPLSHTRFSL [TFRC_Y20_Y20H] 0.925
VDFQPYRKHKF [TEX37_Y28_YF] 0.864
TDEYEYDELIV [TGM1_Y136] 0.663
HDRNTYEKYLG [TF_Y666] 0.424
AVLALYNSTRD [TGFB1_Y81] 1.2
ETKKQYNSFTY [TMED3_Y85_D86N] 0.585
HEHKGYNANFC [TGFB2_Y341_P338H] 1.8
SSQTIYQRVEG [TFR2_Y23_V22I] 0.64
YRVAGYETQGG [TIA1_Y383] 0.49
SDFSSYARTSI [TERT_Y949_YF] 0.572
KPVEEYANCHL [TF_Y593] 0.825
NKEPRYQEEPP [TJP2_Y479_D482E] 0.591
GYCSWYRGWAP [TIMP3_Y195] 0.834
YQSKHYACIRQ [TIMP3_Y182] 1.62
GSSKIYFLHAD [TLR5_Y108_P112A] 1.01
HHTDEYEFDEL [TGM1_Y134_YF] 0.557
VEDHDYEGGIG [TKT_Y564_Y563D] 0.595

Target: SHP2 N-SH2 domain T52S
Test: as above
Details: peptide library: pTyr-Var

Enrichment score, inactive:
EILLSYPRTGY [TGM1_Y365_L366P] 0.982
GEPLSHTRFSL [TFRC_Y20_Y20H] 0.748
VDFQPYRKHKF [TEX37_Y28_YF] 1
TDEYEYDELIV [TGM1_Y136] 0.369
HDRNTYEKYLG [TF_Y666] 0.783
AVLALYNSTRD [TGFB1_Y81] 1.17
ETKKQYNSFTY [TMED3_Y85_D86N] 0.591
HEHKGYNANFC [TGFB2_Y341_P338H] 1.92
SSQTIYQRVEG [TFR2_Y23_V22I] 0.675
YRVAGYETQGG [TIA1_Y383] 0.51
SDFSSYARTSI [TERT_Y949_YF] 0.466
KPVEEYANCHL [TF_Y593] 0.892
NKEPRYQEEPP [TJP2_Y479_D482E] 0.658
GYCSWYRGWAP [TIMP3_Y195] 0.906
YQSKHYACIRQ [TIMP3_Y182] 1.51
GSSKIYFLHAD [TLR5_Y108_P112A] 1.02
TDECEYDELIV [TGM1_Y136_Y134C] 0.332
HHTDEYEFDEL [TGM1_Y134_YF] 0.799
VEDHDYEGGIG [TKT_Y564_Y563D] 0.614

Target: SHP2 N-SH2 domain wild-type
Test: as above
Details: peptide library: pTyr-Var

Enrichment score, inactive:
EILLSYPRTGY [TGM1_Y365_L366P] 0.983
GEPLSHTRFSL [TFRC_Y20_Y20H] 0.851
VDFQPYRKHKF [TEX37_Y28_YF] 1.12
TDEYEYDELIV [TGM1_Y136] 0.631
HDRNTYEKYLG [TF_Y666] 0.512
AVLALYNSTRD [TGFB1_Y81] 1.2
ETKKQYNSFTY [TMED3_Y85_D86N] 0.696
HEHKGYNANFC [TGFB2_Y341_P338H] 1.67
SSQTIYQRVEG [TFR2_Y23_V22I] 0.632
YRVAGYETQGG [TIA1_Y383] 0.704
SDFSSYARTSI [TERT_Y949_YF] 0.613
KPVEEYANCHL [TF_Y593] 1.13
NKEPRYQEEPP [TJP2_Y479_D482E] 0.686
GYCSWYRGWAP [TIMP3_Y195] 1.13
YQSKHYACIRQ [TIMP3_Y182] 1.64
GSSKIYFLHAD [TLR5_Y108_P112A] 1.11
HHTDEYEFDEL [TGM1_Y134_YF] 0.417
VEDHDYEGGIG [TKT_Y564_Y563D] 0.756
